# Reference: the antibiotic and cytotoxicity screens of Wong et al. (2023)
# Some of the results follow.
# Key:
# HSkMC = human skeletal muscle cells; assay: cytotoxicity call (relative viability < 0.9); details: 10 µM
# HepG2 = assay: cytotoxicity call (relative viability < 0.9); details: 10 µM
# S. aureus RN4220 = assay: growth inhibition call (relative growth <= 0.2); details: 50 µM
SMILES,cytotoxicity call (HSkMC),cytotoxicity call (HepG2),growth inhibition call (S. aureus RN4220)
COc1ccc(CN(C)C[C@H]2OCCCC[C@H](C)Oc3ccc(NC(=O)Nc4c(C)noc4C)cc3C(=O)N([C@H](C)CO)C[C@@H]2C)cc1,inactive,inactive,inactive
COc1cccc(CNC(=O)c2cc3c(c(-c4cccc(-c5ccc(C#N)cc5)c4)n2)[C@H](CCO)N([S@@](=O)C(C)(C)C)C3)c1,inactive,inactive,inactive
CN(C)CC(=O)N1CC2(C1)[C@H](c1ccccc1)[C@@H](CO)N2S(C)(=O)=O,inactive,inactive,inactive
C[C@H](NC(=O)C[C@@H]1C[C@H]2c3cc(NC(=O)Nc4ccc(C(F)(F)F)cc4)ccc3O[C@H]2[C@H](CO)O1)c1ccccc1,inactive,inactive,inactive
COc1ccccc1C#Cc1ccc2c(c1)O[C@@H](CN(C)C(C)=O)[C@@H](C)CN([C@@H](C)CO)S2(=O)=O,inactive,inactive,inactive
OCCN1CCN(c2ncnc3c2ncn3[C@H]2CN(Cc3cccnc3)C[C@@H](CO)O2)CC1,inactive,inactive,inactive
C[C@@H]1CCCCO[C@@H](CN(C)Cc2ccc(C(F)(F)F)cc2)[C@@H](C)CN([C@H](C)CO)C(=O)c2cc(NC(=O)C3CCCCC3)ccc2O1,inactive,inactive,inactive
COc1ccccc1OCCNCC(O)COc1cccc2[nH]c3ccccc3c12 (stereo not given),inactive,active,inactive
COc1ccc(NC(=O)Nc2ccc3c(c2)C(=O)N([C@@H](C)CO)C[C@@H](C)[C@@H](CN(C)S(=O)(=O)c2cccs2)OCCCC[C@@H](C)O3)cc1,inactive,inactive,inactive
O=C(C[C@@H]1CC[C@@H]2[C@H](COC[C@H](O)CN2S(=O)(=O)c2ccc(Cl)cc2)O1)NCCN1CCCC1,inactive,inactive,inactive
